# Source: PubChem BioAssay (NCATS)
# Values joined by “and” are separate entries in the source; they are usually repeats but may differ in a detail not shown here. Identical values can stand only once. Inconclusive means that the source gave no clear call. Such entries were picked first, then a sample of the others. Potencies beside an inconclusive call are fits to weak or partial responses and may not hold up. Active and inactive are the calls of the source. Calls come from the whole dose curve; as a rule, active = well fitted curve in the direction sought with a large enough effect; inconclusive = small, poorly fitted or top-dose-only effect, or another doubt; inactive = no such curve, though single readings can be large; an effect the other way counts as inactive or inconclusive.
# Assays:
# [1] = qHTS of pediatric cancer cell lines to identify multiple opportunities for drug repurposing: Primary screen for A673 cells (AID 1347092); conditions: A673 Ewing sarcoma viability, CellTiter-Glo ATP luminescence, 48 h; activity change, negative = cytotoxic: at 46 µM (top of the series) unless noted; note: nearly all actives have a fitted effect of over 45% in size; for activity change, negative = cytotoxic: % is set by controls: 0 for no effect and ±100 for the full control effect
# Summary of the method: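 A673 cells (500-1,000 cells/well in growth media) were pre-incubated 5 h at 37 degrees C, then exposed to compounds for 48 h. Viability was read as CellTiter-Glo luminescence; concentration-response curves came directly from the primary screen.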
# [2] = qHTS of pediatric cancer cell lines to identify multiple opportunities for drug repurposing: Primary screen for SK-N-MC cells (AID 1347093); conditions: SK-N-MC viability, CellTiter-Glo luminescence, 48 h; activity change, negative = cytotoxic: at 46 µM (top of the series);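 for activity change, negative = cytotoxic: plate controls were DMSO neutral control for no effect and bortezomib for full effect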
# Summary of the method: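 Metabolically active cells were quantified by ATP-dependent luminescence (CellTiter-Glo, 15 min at room temperature) following 48 h treatment. Cells had been plated at 500-1,000 per well and settled for 5 h beforehand.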
# [3] = qHTS of pediatric cancer cell lines to identify multiple opportunities for drug repurposing: Primary screen for U-2 OS cells (AID 1347096); conditions: U-2 OS viability, CellTiter-Glo luminescence, 48 h; series mostly up to 46 µM; note: nearly all actives have a fitted effect of over 50% in size;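 for activity change, negative = cytotoxic: plate controls were DMSO wells for no effect and bortezomib positive control wells for full effect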
# Summary of the method: (§1)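 Cells (500-1,000/well) rested 5 h, then received compounds for 48 h; metabolically active cells were measured by CellTiter-Glo luminescence. Final concentrations spanned up to 46 µM (MIPE, 11-point) or 0.59 nM-46 µM (NPC, 8-point) in primary screens, 11-point in follow-ups.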
# [4] = qHTS of pediatric cancer cell lines to identify multiple opportunities for drug repurposing: Primary screen for Saos-2 cells (AID 1347097); conditions: Saos-2 viability, CellTiter-Glo ATP luminescence, 48 h; activity change, negative = cytotoxic: at 46 µM (top of the series); note: nearly all actives have a fitted effect of over 40% in size; for activity change, negative = cytotoxic: % is set by controls: 0 for no effect and ±100 for the full control effect
# Summary of the method: (§2)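 CRCs from 8- or 11-point titrations (lowest final 0.59 nM NPC, 0.78 nM MIPE). Cell viability: CellTiter-Glo after 48 h incubation, 15 min room-temperature development, luminescence imaging.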
# [5] = qHTS of pediatric cancer cell lines to identify multiple opportunities for drug repurposing: Primary screen for SK-N-SH cells (AID 1347098); conditions: SK-N-SH viability, CellTiter-Glo luminescence, 48 h; series mostly up to 57 µM; note: nearly all actives have a fitted effect of over 65% in size;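 for activity change, negative = cytotoxic: DMSO served as neutral control and bortezomib at 2.3 µM as positive control; % is set by controls: 0 for no effect and ±100 for the full control effect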
# Summary of the method: as §1
# [6] = qHTS of pediatric cancer cell lines to identify multiple opportunities for drug repurposing: Primary screen for NB1643 cells (AID 1347099); conditions: NB1643 neuroblastoma viability, CellTiter-Glo luminescence, 48 h; series mostly up to 46 µM; note: nearly all actives have a fitted effect of over 50% in size;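 for activity change, negative = cytotoxic: plate controls were DMSO neutral control for no effect and bortezomib positive control for full effect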
# Summary of the method: as §2
# [7] = qHTS of pediatric cancer cell lines to identify multiple opportunities for drug repurposing: Primary screen for BT-12 cells (AID 1347101); conditions: BT-12 viability, CellTiter-Glo luminescence, 48 h; series mostly up to 57.3 µM; note: nearly all actives have a fitted effect of over 25% in size;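 for activity change, negative = cytotoxic: plate controls were DMSO for no effect and bortezomib positive control for full effect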
# Summary of the method: as §1
# [8] = qHTS of pediatric cancer cell lines to identify multiple opportunities for drug repurposing: Primary screen for NB-EBc1 cells (AID 1347095); conditions: NB-EBc1 neuroblastoma viability, CellTiter-Glo luminescence, 48 h; series mostly up to 46 µM;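 for activity change, negative = cytotoxic: plate controls were DMSO neutral control for no effect and bortezomib for full effect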
# Summary of the method: as §2
# [9] = qHTS of pediatric cancer cell lines to identify multiple opportunities for drug repurposing: Primary screen for LAN-5 cells (AID 1347100); conditions: LAN-5 neuroblastoma viability, CellTiter-Glo luminescence, 48 h; activity change, negative = cytotoxic: at 46 µM (top of the series);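 for activity change, negative = cytotoxic: plate controls were DMSO neutral control for no effect and bortezomib positive control for full effect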
# Summary of the method: as §1
# [10] = qHTS of pediatric cancer cell lines to identify multiple opportunities for drug repurposing: Primary screen for BT-37 cells (AID 1347094); conditions: BT-37 viability, CellTiter-Glo luminescence, 48 h; series mostly up to 57.3 µM;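 for activity change, negative = cytotoxic: plate controls were DMSO for no effect and bortezomib for full effect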
# Summary of the method: as §2
# Potency is the fitted concentration of half-maximal effect; tags give direction and shape of the fitted curve.
smiles,measurement,setting,value
CC(C)(C)NC[C@H](O)COc1cccc2c1CCCC2=O,Potency,[1],inactive
same,Potency,[2],inactive
same,Potency,[3],inactive
same,Potency,[4],inactive
same,Potency,[5],"inconclusive: 0.77 µM [cytotoxic, full curve, poor fit]"
same,Potency,[6],inactive
same,Potency,[7],inactive
CNC[C@H](O)c1ccc(O)c(O)c1,Potency,[1],"inconclusive: 14.6 µM [cytotoxic, single point]"
same,Potency,[2],"inconclusive: 48.1 µM [cytotoxic, single point]"
same,Potency,[5],inactive
same,Potency,[6],"inconclusive: 5.17 µM [cytotoxic, partial curve, poor fit] and inconclusive: 48.1 µM [cytotoxic, single point]"
COc1ccc(C2CC(c3ccccc3)=NN2c2ccc(S(N)(=O)=O)cc2)cc1 (stereo not drawn),Potency,[1],"inconclusive: 29.6 µM [cytotoxic, single point]"
same,Potency,[2],active: 18.7 µM
same,Potency,[8],"inconclusive: 37.2 µM [cytotoxic, single point]"
same,Potency,[3],inactive
same,Potency,[6],"inconclusive: 26.4 µM [cytotoxic, single point]"
same,Potency,[9],"inconclusive: 26.4 µM [cytotoxic, single point]"
CNCC(O)c1ccc(O)c(O)c1 (stereo not drawn),Potency,[1],"inconclusive: 33.5 µM [cytotoxic, single point]"
same,Potency,[2],"inconclusive: 23.7 µM [cytotoxic, partial curve, poor fit]"
same,Potency,[5],"inconclusive: 13.7 µM [cytotoxic, partial curve, poor fit]"
Cc1cn([C@@H]2O[C@H](CO)[C@@H](O)[C@H]2F)c(=O)[nH]c1=O,Potency,[1],inactive
same,Potency,[2],"inconclusive: 37.2 µM [cytotoxic, single point]"
same,Potency,[10],"inconclusive: 21.7 µM [cytotoxic, partial curve, poor fit]"
same,Potency,[4],inactive
same,Potency,[5],inactive
C[C@](N)(Cc1ccc(O)c(O)c1)C(=O)O,Potency,[1],"inconclusive: 21.1 µM [cytotoxic, single point] and inconclusive: 18.7 µM [cytotoxic, partial curve, poor fit]"
same,Potency,[2],"inconclusive: 33.2 µM [cytotoxic, single point]"
same,Potency,[8],inactive
same,Potency,[4],"inconclusive: 0.418 µM [cytotoxic, full curve, poor fit]"
same,Potency,[5],"inconclusive: 19.4 µM [cytotoxic, single point] and inconclusive: 42.9 µM [cytotoxic, single point]"
CCCCCCOc1ccccc1C(N)=O,Potency,[1],inactive
same,Potency,[2],inconclusive: 0.0009 µM [cytotoxic]
same,Potency,[4],inactive
same,Potency,[6],inactive
same,Potency,[7],"inconclusive: 27.6 µM [cytotoxic, single point]"
CC(C)(C)Cn1c(N)nc2ccc(-c3[nH]c(C(C)(C)C)nc3-c3ccc(F)cc3)nc21,Potency,[1],active: 18.7 µM
same,Potency,[2],"inconclusive: 26.4 µM [cytotoxic, single point]"
same,Potency,[10],active: 24.3 µM
same,Potency,[4],inactive
same,Potency,[5],"inconclusive: 27.1 µM [cytotoxic, partial curve]"
same,Potency,[9],inactive
CC=CC[C@@H](C)C(=O)[C@H]1C(=O)N[C@@H](C(C)C)C(=O)N(C)CC(=O)N(C)[C@@H](CC(C)C)C(=O)N[C@@H](C(C)C)C(=O)N(C)[C@@H](CC(C)C)C(=O)N[C@@H](C)C(=O)N[C@H](C)C(=O)N(C)[C@@H](CC(C)C)C(=O)N(C)[C@@H](CC(C)C)C(=O)N(C)[C@@H](C(C)C)C(=O)N1C,Potency,[1],"inconclusive: 37.2 µM [cytotoxic, single point]"
same,Potency,[2],"inconclusive: 37.2 µM [cytotoxic, single point]"
same,Potency,[10],"inconclusive: 30.6 µM [cytotoxic, single point]"
same,Potency,[6],"inconclusive: 23.5 µM [cytotoxic, partial curve]"
same,Potency,[9],"inconclusive: 20.9 µM [cytotoxic, partial curve]"
same,Potency,[7],"inconclusive: 21.7 µM [cytotoxic, partial curve, poor fit]"
C#CC1(O)CC[C@H]2[C@@H]3CCC4=CCCC[C@@H]4[C@H]3CC[C@@]21C (stereo partly drawn),Potency,[1],"inconclusive: 33.5 µM [cytotoxic, single point]"
same,Potency,[2],"inconclusive: 33.5 µM [cytotoxic, single point]"
same,Potency,[3],"inconclusive: 16.8 µM [cytotoxic, partial curve, poor fit]"
same,Potency,[4],"inconclusive: 29.9 µM [cytotoxic, single point]"
same,Potency,[6],"inconclusive: 26.6 µM [cytotoxic, single point]"
same,Potency,[7],"inconclusive: 13.8 µM [cytotoxic, partial curve, poor fit]"
Cc1ccc(C(=O)Nc2ccc(S(=O)(=O)O)c3cc(S(=O)(=O)O)cc(S(=O)(=O)O)c23)cc1NC(=O)c1cccc(NC(=O)Nc2cccc(C(=O)Nc3cc(C(=O)Nc4ccc(S(=O)(=O)O)c5cc(S(=O)(=O)O)cc(S(=O)(=O)O)c45)ccc3C)c2)c1,Potency,[1],"inconclusive: 7.43 µM [cytotoxic, partial curve, poor fit]"
same,Potency,[2],"inconclusive: 23.5 µM [cytotoxic, partial curve, poor fit]"
same,Potency,[8],"inconclusive: 14.8 µM [cytotoxic, partial curve]"
same,Potency,[5],"inconclusive: 7.64 µM [cytotoxic, partial curve]"
CC1=C(C)C(=O)C(C(CCCCCC(=O)O)c2ccccc2)=C(C)C1=O (stereo not drawn),Potency,[1],"inconclusive: 5.31 µM [cytotoxic, single point] and inconclusive: 23.5 µM [cytotoxic, single point]"
same,Potency,[2],"inconclusive: 29.6 µM [cytotoxic, single point]"
same,Potency,[10],inactive
same,Potency,[4],"inconclusive: 21.1 µM [cytotoxic, partial curve]"
CCOc1ccc2nc(S(N)(=O)=O)sc2c1,Potency,[1],"inconclusive: 26.6 µM [cytotoxic, partial curve, poor fit]"
same,Potency,[2],"inconclusive: 0.0335 µM [cytotoxic, full curve, poor fit]"
same,Potency,[10],"inconclusive: 43.7 µM [cytotoxic, partial curve, poor fit]"
same,"activity change, negative = cytotoxic",[4],inconclusive: -35.3% [cytotoxic]
same,Potency,[7],inactive
NC(CO)C(=O)NNCc1ccc(O)c(O)c1O (stereo not drawn),Potency,[1],"inconclusive: 33.5 µM [cytotoxic, single point]"
same,Potency,[2],"inconclusive: 29.6 µM [cytotoxic, single point]"
same,Potency,[8],"inconclusive: 20.9 µM [cytotoxic, single point]"
same,Potency,[4],"inconclusive: 29.9 µM [cytotoxic, single point]"
same,Potency,[5],"inconclusive: 38.6 µM [cytotoxic, single point]"
same,Potency,[9],"inconclusive: 18.8 µM [cytotoxic, single point] and inconclusive: 29.6 µM [cytotoxic, single point]"
same,Potency,[7],inactive
Cc1ccc(-n2nc(C(C)(C)C)cc2NC(=O)Nc2ccc(OCCN3CCOCC3)c3ccccc23)cc1,Potency,[1],"inconclusive: 33.5 µM [cytotoxic, single point]"
same,Potency,[2],"inconclusive: 33.5 µM [cytotoxic, single point]"
same,Potency,[3],"inconclusive: 26.6 µM [cytotoxic, partial curve, poor fit]"
same,Potency,[4],"inconclusive: 29.9 µM [cytotoxic, single point]"
same,Potency,[5],"inconclusive: 38.6 µM [cytotoxic, single point]"
same,Potency,[7],"inconclusive: 24.3 µM [cytotoxic, partial curve, poor fit] and inconclusive: 17.4 µM [cytotoxic, partial curve, poor fit]"
Oc1ccc(OCc2ccccc2)cc1,Potency,[1],"inconclusive: 2.96 µM [cytotoxic, full curve]"
same,Potency,[2],"inconclusive: 23.5 µM [cytotoxic, partial curve]"
same,Potency,[10],"inconclusive: 24.3 µM [cytotoxic, partial curve]"
same,Potency,[5],"inconclusive: 5.41 µM [cytotoxic, partial curve, poor fit]"
same,Potency,[9],"inconclusive: 13.2 µM [cytotoxic, full curve, poor fit]"
O=C(Nc1ccccc1)Nc1ccc(-c2ccc(C(=O)[C@H]3CCC[C@H]3C(=O)O)cc2)cc1,Potency,[1],active: 11.8 µM
same,Potency,[2],active: 1.87 µM
same,Potency,[10],"inconclusive: 19.3 µM [cytotoxic, partial curve]"
same,Potency,[4],inactive
same,Potency,[5],"inconclusive: 42.9 µM [cytotoxic, single point]"
same,Potency,[7],"inconclusive: 24.3 µM [cytotoxic, partial curve]"
CNCC[C@H](Oc1cccc2ccccc12)c1cccs1,Potency,[1],"inconclusive: 21.1 µM [cytotoxic, single point] and active: 1.18 µM"
same,Potency,[2],"inconclusive: 33.5 µM [cytotoxic, single point]"
same,Potency,[10],"inconclusive: 19.5 µM [cytotoxic, single point] and inconclusive: 34.3 µM [cytotoxic, single point]"
same,Potency,[4],"inconclusive: 26.6 µM [cytotoxic, single point] and inconclusive: 20.9 µM [cytotoxic, partial curve]"
same,Potency,[5],active: 19.4 µM and active: 5.41 µM
same,Potency,[9],"inconclusive: 21.1 µM [cytotoxic, single point]"
same,Potency,[7],"inconclusive: 27.6 µM [cytotoxic, single point] and inconclusive: 34.3 µM [cytotoxic, single point]"
Cc1ccc(NC(=O)c2ccc(CN3CCN(C)CC3)cc2)cc1Nc1nccc(-c2cccnc2)n1,Potency,[1],"inconclusive: 37.2 µM [cytotoxic, single point] and inconclusive: 33.5 µM [cytotoxic, single point]"
same,Potency,[2],"inconclusive: 33.5 µM [cytotoxic, single point]"
same,Potency,[10],"inconclusive: 38.9 µM [cytotoxic, single point]"
same,Potency,[4],"inconclusive: 16.6 µM [cytotoxic, partial curve]"
same,Potency,[5],"inconclusive: 42.9 µM [cytotoxic, single point] and active: 34.4 µM"
same,Potency,[7],"inconclusive: 27.3 µM [cytotoxic, single point] and inconclusive: 11 µM [cytotoxic, partial curve]"
